{"source": "PubChem BioAssay AID652104", "about": "(National Center for Advancing Translational Sciences (NCATS), 2013)", "note": "About 7,200 (1.8%) of roughly 410,000 compounds were called active. Inconclusive means that the source gave no clear call. Such entries were picked first, then a sample of the others. Calls come from the whole dose curve; as a rule, active = well fitted activation curve with a large enough effect; inconclusive = small, poorly fitted or top-dose-only effect, or another doubt; inactive = no such curve, though single readings can be large or run the other way. Potencies of inconclusive entries are left out as doubtful fits. Potency is the fitted concentration of half-maximal effect; tags give direction and shape of the fitted curve."}
{"test": "qHTS of TDP-43 Inhibitors; note: nearly all actives have a fitted effect of over 50% in size", "conditions": "TDP-43 expressing yeast growth rescue, BacTiter-Glo, 24 h; series mostly up to 46.1 µM", "in_short": "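Galactose-induced TDP-43 yeast, OD600=0.02, compound pinned; 24 hr, 30 deg C; BacTiter-Glo luminescence for growth. Inhibitors of TDP-43 toxicity read as activators.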"}
{"smiles": "O=[N+]([O-])c1cc(F)c2cccnc2c1O", "Potency": "active: 3.98 µM"}
{"smiles": "CCCS(=O)(=O)N1CCCC(C(=O)N2CCC(Cc3ccccc3)CC2)C1", "note": "(stereo not drawn)", "Potency": "inconclusive [activator, single point]"}
{"smiles": "CCOC(=O)c1c(NC(=O)CSc2cn(CCNC(=O)c3ccccc3OC)c3ccccc23)sc2c1CCC2", "Potency": "inactive"}
{"smiles": "O=C1NC(c2cccs2)Nc2sc3c(c21)CCCC3", "note": "(stereo not drawn)", "Potency": "inactive"}
{"smiles": "CCCCN(CC)S(=O)(=O)c1ccc(C(=O)Nc2nnc(CSC)o2)cc1", "Potency": "inconclusive [activator, single point]"}
{"smiles": "Cn1c(=O)c(-c2ccccc2[N+](=O)[O-])c(Cl)c2ccccc21", "Potency": "active: 15.8 µM"}
{"smiles": "CC(C)(C)Sc1ccc(/C=N/O)cc1[N+](=O)[O-]", "Potency": "active: 15.8 µM"}
{"smiles": "CCO/N=C1\\C(=O)N(c2ccccc2)c2ccccc21", "Potency": "inconclusive [activator, full curve, poor fit]"}
{"smiles": "Cc1ccc(NC(=O)CC2SC(=O)N(c3ccccc3)C2=O)cc1", "note": "(stereo not drawn)", "Potency": "active: 20 µM"}
{"smiles": "CCS(=O)(=O)N1CCC(NC(=O)C(Cc2ccc(OC)c(OC)c2)NC(C)=O)CC1", "note": "(stereo not drawn)", "Potency": "inconclusive [activator, full curve, poor fit]"}
{"smiles": "CCCN(CCC)CCCNC(=O)Cn1cc2c(n1)-c1c(oc(C(=O)N3CCCC3)c1C)CC2", "Potency": "inactive"}
{"smiles": "c1ccc2[nH]c(CN3CCOCC3)nc2c1", "Potency": "inactive"}
{"smiles": "CCCn1c2ccccc2c2cn[nH]c(=O)c21", "Potency": "inconclusive [activator, single point]"}
{"smiles": "CCCOc1ccc(C(=O)Nc2cc(-c3nc4ccccc4[nH]3)ccc2C)cc1", "Potency": "active: 12.6 µM"}
{"smiles": "O=C(c1ccco1)N1N=C(c2ccccc2O)CC1c1cccs1", "note": "(stereo not drawn)", "Potency": "active: 35.5 µM"}
{"smiles": "CC(=O)N1CCN(c2c(F)c(F)c(C(F)(F)F)c(F)c2F)CC1", "Potency": "inconclusive [activator, single point]"}
{"smiles": "CCCN(C(=O)c1c(C)oc2ncn(CC(C)C)c(=O)c12)c1ccccc1C", "Potency": "inconclusive [activator, full curve]"}
{"smiles": "Cc1ccc(NS(=O)(=O)c2ccc(C3CCCCC3)cc2)cc1", "Potency": "inconclusive [activator, single point]"}
{"smiles": "COCCOC(=O)C1=C(C)NC(=O)NC1c1ccco1", "note": "(stereo not drawn)", "Potency": "inactive"}
{"smiles": "O=C(COC(=O)C1=COCCO1)Nc1cc(C(F)(F)F)ccc1Cl", "Potency": "inconclusive [activator, partial curve]"}
{"smiles": "COC(=O)c1cc(C(=O)OCC(=O)Nc2ccccc2OC(F)F)cc([N+](=O)[O-])c1", "Potency": "active: 22.4 µM"}
{"smiles": "Cc1c(C(=O)Nc2ccc3c(c2)OCCO3)sc2ncnc(N3CCCCC3C)c12", "note": "(stereo not drawn)", "Potency": "active: 15.8 µM"}
{"smiles": "Cc1nc(N2CCCCC2)sc1C(=O)c1ccc(SCCO)c([N+](=O)[O-])c1", "Potency": "active: 35.5 µM"}
{"smiles": "Cc1cccc2nc(Cn3c(=O)n(-c4ccccc4)c(=O)c4c5c(sc43)CCC5)cc(=O)n12", "Potency": "inactive"}
{"smiles": "Cc1cc(C)n2nc(SCc3nnc(SCc4ccccc4)s3)nc2n1", "Potency": "inconclusive [activator, single point]"}
{"smiles": "CCOC(=O)c1cc2c(=O)n3ccccc3nc2n(CC2CCCO2)c1=NC(=O)c1ccccc1OCC", "note": "(stereo not drawn)", "Potency": "inactive"}
{"smiles": "CCOc1cc(C(=S)N2CCOCC2)ccc1OC(=O)c1cccc(C)c1", "Potency": "inconclusive [activator, full curve, poor fit]"}
{"smiles": "COc1ccc(C(=O)NC(=S)NNC(=O)c2cnccn2)cc1", "Potency": "inconclusive [activator, single point]"}
{"smiles": "O=C(CSc1ccc(F)cc1)NC(=O)c1ccccc1", "Potency": "inconclusive [activator, partial curve]"}
{"smiles": "Cc1ccc(S(=O)(=O)N2CCN(C(=O)Cn3c(=O)oc4ccccc43)CC2)cc1", "Potency": "inactive"}
{"smiles": "Cc1cc(=O)oc2cc(OC(C)C(=O)N3CCOCC3)ccc12", "note": "(stereo not drawn)", "Potency": "inactive"}
{"smiles": "CC(C)(C)C(=O)Nc1ccccc1C(=O)Nc1cc(Cl)ccc1Cl", "Potency": "active: 22.4 µM"}
{"smiles": "CCN(CC)c1ccc(NC(=O)Cn2cc3c(n2)CCCC3)c(C)c1", "Potency": "inconclusive [activator, single point]"}
{"smiles": "CCCCN(CC)c1nc(-c2ccncc2)nc2ccccc12", "Potency": "inconclusive [activator, single point]"}
{"smiles": "Cc1c(NC(=O)C(C)(C)C)cccc1-c1nc2ccccc2s1", "Potency": "inconclusive [activator, partial curve]"}
{"smiles": "CCOc1ccc(NC(=O)CSc2nc3ccccc3nc2N2CCCC2)cc1", "Potency": "inconclusive [activator, full curve]"}
{"smiles": "Cn1cc(S(=O)(=O)N2CCc3ccccc32)cc1C(=O)Nc1ccc(C(F)(F)F)cc1", "Potency": "inconclusive [activator, full curve, poor fit]"}
{"smiles": "O=C(Nc1ccc(Cl)c(Cl)c1)c1cccnc1", "Potency": "active: 17.8 µM"}
{"smiles": "COc1cccc(NC(=S)N2CCC(Cc3ccccc3)CC2)c1", "Potency": "inconclusive [activator, single point]"}
{"smiles": "CCCSc1ncc(Cl)c(C(=O)Nc2ccc(S(=O)(=O)N3CCCCC3C)cc2)n1", "note": "(stereo not drawn)", "Potency": "inactive"}
{"smiles": "COc1ccc(NC(=O)CCn2cnnn2)cc1", "Potency": "inconclusive [activator, single point]"}
{"smiles": "CC(=O)c1cc(C#N)c(Oc2ccc(F)cc2)nc1C", "Potency": "inconclusive [activator, single point]"}
{"smiles": "c1ccc(CSc2ccc(-c3cccnc3)nn2)nc1", "Potency": "inactive"}
{"smiles": "COCCn1c(SCc2ccccc2F)nc2c([nH]c3ccccc32)c1=O", "Potency": "inactive"}
{"smiles": "CCOC(=O)NC(=S)Nc1c(C)n(C)n(-c2ccccc2)c1=O", "Potency": "inconclusive [activator, single point]"}
{"smiles": "CCOc1ccc(-n2cc(-c3ccccc3)c3c(NCc4ccccc4)ncnc32)cc1", "Potency": "inconclusive [activator, partial curve]"}
{"smiles": "CCOc1cc(N2CCOCC2)c(OCC)cc1NC(=O)c1ccc(OC)cc1", "Potency": "inconclusive [activator, partial curve]"}
{"smiles": "CCOC(=O)CN(Cc1ccccc1)C(C(=O)NC1CCCCC1)c1ccccc1", "note": "(stereo not drawn)", "Potency": "inconclusive [activator, single point]"}
